From PMC4336329 (PLoS ONE, 2015)
The campaign covered roughly 310,000 compounds. About 2,200 (0.71%) showed an effect of 50% or more. Effects have a minus sign here. The list shows a part of the results.

Target: human ether-à-go-go-related gene (hERG) potassium channel (human, UniProt Q12809)
Experiment: primary screen, population patch clamp on CHO cells stably expressing hERG

human ether-à-go-go-related gene (hERG) potassium channel, sequence (Q12809 whole entry, looked up): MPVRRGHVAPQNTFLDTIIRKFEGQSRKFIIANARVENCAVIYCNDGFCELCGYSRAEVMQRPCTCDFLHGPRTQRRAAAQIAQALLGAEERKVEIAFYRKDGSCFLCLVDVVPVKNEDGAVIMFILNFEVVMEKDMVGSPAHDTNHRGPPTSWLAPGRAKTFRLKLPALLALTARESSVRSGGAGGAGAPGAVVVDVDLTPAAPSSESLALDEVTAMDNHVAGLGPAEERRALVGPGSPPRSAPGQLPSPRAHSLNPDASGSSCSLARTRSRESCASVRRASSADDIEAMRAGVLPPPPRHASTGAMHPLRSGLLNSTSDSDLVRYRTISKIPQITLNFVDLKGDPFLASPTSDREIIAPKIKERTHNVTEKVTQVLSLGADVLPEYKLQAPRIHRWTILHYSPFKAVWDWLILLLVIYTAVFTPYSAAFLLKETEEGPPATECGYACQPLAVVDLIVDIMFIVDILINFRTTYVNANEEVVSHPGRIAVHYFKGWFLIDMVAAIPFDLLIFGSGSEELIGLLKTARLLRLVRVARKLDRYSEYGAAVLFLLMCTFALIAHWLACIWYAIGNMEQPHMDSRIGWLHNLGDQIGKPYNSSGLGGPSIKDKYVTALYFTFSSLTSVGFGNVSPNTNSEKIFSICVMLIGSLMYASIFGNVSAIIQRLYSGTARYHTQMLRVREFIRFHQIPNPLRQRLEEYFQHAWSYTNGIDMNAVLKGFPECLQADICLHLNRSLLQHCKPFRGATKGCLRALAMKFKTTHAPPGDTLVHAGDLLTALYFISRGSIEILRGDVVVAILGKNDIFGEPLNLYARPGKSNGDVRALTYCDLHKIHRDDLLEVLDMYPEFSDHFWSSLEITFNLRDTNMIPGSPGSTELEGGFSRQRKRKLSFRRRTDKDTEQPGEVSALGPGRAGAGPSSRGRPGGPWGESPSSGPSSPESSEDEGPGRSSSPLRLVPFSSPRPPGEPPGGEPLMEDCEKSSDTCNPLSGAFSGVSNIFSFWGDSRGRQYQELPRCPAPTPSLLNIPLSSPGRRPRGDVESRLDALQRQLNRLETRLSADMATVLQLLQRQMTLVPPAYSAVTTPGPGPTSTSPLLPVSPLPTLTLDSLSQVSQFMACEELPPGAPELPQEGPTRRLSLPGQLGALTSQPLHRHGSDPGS

| SMILES | hERG current change (%, negative = inhibition) at 1uM |
| --- | --- |
| O=C(CC1SC2=NCCN2C1=O)Nc1ccc(Cl)cc1 (stereo not shown) | 9.83% |
| Cc1cc(Cl)ccc1OCC(=O)N(Cc1cccs1)C1CCS(=O)(=O)C1 (stereo not shown) | 10.4% |
| CC(C)CN(C(=O)COC(=O)CNC(=O)c1sc2ccccc2c1Cl)C1CCS(=O)(=O)C1 (stereo not shown) | 6.41% |
| CC(=O)Nc1ccc(/C(C)=N/NC(=O)c2ccc(CN3CCOCC3)cc2)cc1 | 10.9% |
| CCOC(=O)C1CCCN(c2c(N3CCN(c4ccccn4)CC3)c(=O)c2=O)C1 (stereo not shown) | -8.35% |
| O=S(=O)(Cc1ccc(Cl)cc1)Nc1ccc(Cl)cn1 | 6.83% |
| COc1ccc(S(=O)(=O)Oc2cccc(C(=S)N3CCOCC3)c2)cc1 | 5.8% |
| S=C(NCc1ccccc1)N1CCCCC1 | 14.5% |
| CC1=C(C(=O)Nc2ccc(C(=O)NCCC(C)C)cc2)SCCO1 | 12.4% |
| Cc1nn(CC(=O)N2CCCc3ccccc32)c(C)c1[N+](=O)[O-] | 7.9% |
| O=C(CNC(=O)c1cccs1)N=Nc1c(O)[nH]c2ccc([N+](=O)[O-])cc12 | 11.9% |
| Cc1nc2c3cc(F)ccc3n(CCN3CCCCC3)c2s1.Cl | -34.2% |
| CN(C)c1ccc(C(=O)N2CCCC2)cc1 | 10% |
| CCn1ncc(Br)c1C(=O)Nc1ccc(OC(F)(F)F)cc1 | 13.4% |
| c1ccc(Nc2c3c(nc4ncnn24)CCC3)cc1 | 12.3% |
| CCn1c(SCC(=O)Nc2cccc(O)c2)nc2c1c(=O)n(C)c(=O)n2C | 14.7% |
| CC(C)[C@H](NS(=O)(=O)c1ccccc1)C(=O)OCC(=O)NC(=O)c1cccn1C | -6.91% |
| COc1ccc2[nH]c(=O)c(COC(=O)c3ccco3)cc2c1 | 19.3% |
| CCc1ccc(NC(=O)CSc2nnc(-c3n[nH]c4ccccc34)n2-c2ccccc2)cc1 | 10.6% |
| CCc1ccc(-n2c(SCC(=O)Nc3ccc(C(=O)O)cc3)nnc2-c2ccncc2)cc1 | -1.14% |
| COc1ccc(N(C(=O)c2ccncc2)S(=O)(=O)c2cccc([N+](=O)[O-])c2)cc1 | 23.9% |
| COc1ccc([N+](=O)[O-])cc1N(CC(=O)NCCSc1ccccc1)S(C)(=O)=O | -2.36% |

| SMILES | hERG current change (%, negative = inhibition) at 1uM |
| --- | --- |
| CCOC(=O)c1ccc(N2Cc3ccccc3C2=N)cc1 | -25.7% |
| O=C(Nc1ccccn1)C1CCN(c2ncnc3c2nc2n3CCCCC2)CC1 | 14.9% |
| CCn1c(CSc2ncccn2)nnc1SCC(=O)N1CCc2ccccc21 | -10.6% |
| COc1ccc(C2CC(C(F)(F)F)n3nc(C(=O)N(C)Cc4cn(C)nc4C)c(Cl)c3N2)cc1 (stereo not shown) | -3.33% |
| COc1cc(NC(=O)CSc2nc(C3CC3)nc3ccccc23)cc(OC)c1 | 13.2% |
| COC(=O)c1sc(NC(=S)NC(=O)c2cccc(Br)c2)nc1C | 12.1% |
| O=C(Cn1nc2sc3ccccc3n2c(=O)c1=O)c1cccs1 | 13.1% |
| COc1ccc(N2C(=O)C3CCCN3C2c2cccc(OC)c2)cc1 (stereo not shown) | 6.59% |
| Cc1ccc(/C=C2/NC(=O)N(c3ccccc3)C2=O)o1 | 8.55% |
| CCC(=O)Nc1c(C#N)c2nc3ccccc3nc2n1-c1ccccc1C | 24.9% |
| CN1CCN(C(=O)C2=C[C@@H](C(C)(C)C)C[C@@H](OCc3ccc(CO)cc3)O2)CC1 | 4.49% |
| COc1ccc(N2CC(NC(=O)N3CCN(C(=O)c4ccco4)CC3)CC2=O)cc1OC (stereo not shown) | 6.55% |
| Clc1ccc(COn2c(-c3ccc(Cl)cc3)nc3ccccc32)cc1 | 10.3% |
| CCC(C)NC(=O)COC(=O)c1ccc(Cl)cc1O (stereo not shown) | 12.6% |
| Cn1ccnc1C(O)c1ccco1 (stereo not shown) | 5.67% |
| CCCCSc1nc(CCC)cc(=O)[nH]1 | -0.222% |
| O=C1CCCC2=C1C1c3ccccc3C(=O)N1c1ccc(C(=O)c3ccccc3)cc1N2 (stereo not shown) | -7.46% |
| CC(=O)N1CCc2cc(S(=O)(=O)NCc3ccc(C)cc3)ccc21 | 12.6% |
| COCCCN1CN=C(NS(=O)(=O)c2ccc(C)cc2)NC1 | 13.7% |
| C#CCSC1=C(C#N)C(c2cccs2)C(C(=O)OCC)=C(C)N1 (stereo not shown) | 14.1% |
| COc1ccc(C2(CNC(=O)c3ccccc3)CCOCC2)cc1 | 15.1% |
| COc1cccc(NC(=O)CSc2ccc(-c3ccco3)nn2)c1 | -4.17% |

| SMILES | hERG current change (%, negative = inhibition) at 1uM |
| --- | --- |
| O=C(CCNC(=O)c1ccc([N+](=O)[O-])cc1)Nc1ccc(Cl)c(S(=O)(=O)N2CCOCC2)c1 | 0.84% |
| O=[N+]([O-])c1ccc(Sc2ccc(F)cc2)nc1 | 11.3% |
| CC1CCCCN1C(=O)COC(=O)c1cccc(NS(=O)(=O)c2ccccc2)c1 (stereo not shown) | 7.71% |
| CCOC(=O)CC(NC(=O)CCc1c(C)nc2ncnn2c1C)c1ccc(OC(C)C)cc1 (stereo not shown) | 7.48% |
| Cc1ccc(OCC(=O)N(Cc2ccccc2)C(C)(C)C)c([N+](=O)[O-])n1 | 4.26% |
| CC(=O)NCC1COc2ccccc2O1 (stereo not shown) | -6.95% |
| CC(C)CCNC(=O)NC(=O)COC(=O)c1cc(S(=O)(=O)N2CCOCC2)ccc1N1CCCCC1 | 3.41% |
| Cn1c(CNC(=O)c2ccc(F)cc2)nc2ccccc21 | 7.04% |
| O=C(CCc1nnc(-c2ccc3c(c2)OCO3)o1)N1CCC(c2ccc(F)cc2)C1 (stereo not shown) | -0.116% |
| N#Cc1ccc(-c2csc(NC(=O)c3ccc(N4C(=O)CCC4=O)cc3)n2)cc1 | 12.6% |
| Cc1ccc(C(=O)N/C(=C/C=C/c2ccccc2)C(=O)NCc2ccco2)cc1 | -10.9% |
| COc1ccccc1CN=Cc1[nH]c2ccc(Br)c(Cl)c2c1O | 17.4% |
| O=C(NCCC1CCCCN1S(=O)(=O)c1ccc(F)cc1)C(=O)NCc1ccncc1 (stereo not shown) | 1.91% |
| O=[N+]([O-])c1ccc(Sc2n[nH]c(-c3ccco3)n2)nc1 | 1.85% |
| COc1ccccc1NC(=O)NNC(=O)c1ccc2ccccc2c1O | -6.61% |
| O=C1C2C3CCC(O3)C2C(=O)N1c1cccc(F)c1 (stereo not shown) | 5.89% |
| CNC(=O)C1=C(C)NC(=S)NC1c1cc2c(cc1OC)CCCC2 (stereo not shown) | 0.39% |
| O=C1CCC(=O)N1CC(=O)N1CCCc2ccccc21 | 8.49% |
| COc1cc(C(=O)NCC(=O)OCC(=O)Nc2ncc(Cl)cc2Cl)cc(OC)c1OC | 0.37% |
| COc1ccc(CNC(=O)CN2C(=O)COc3ccc(S(=O)(=O)N4CCCCC4)cc32)cc1 | 10.5% |
| O=C1C2C3C=CC(C3)C2C(=O)N1CCCO (stereo not shown) | -3.04% |
| O=C(COC(=O)c1cccs1)Nc1cccc(S(=O)(=O)N2CCOCC2)c1 | 10.9% |

| SMILES | hERG current change (%, negative = inhibition) at 1uM |
| --- | --- |
| Cn1c(=O)c2c(nc(Br)n2Cc2ccccc2Cl)n(C)c1=O | 11.9% |
| Cc1cc(C)c(N=Cc2c(O)c3ccccc3oc2=O)c(C)c1 | 17.3% |
| CS(=O)(=O)N(CC(=O)N1CCN(Cc2ccccc2)CC1)Cc1ccccc1 | 4.18% |
| COC(=O)c1cccc(C(=O)N2CCCC(C(=O)c3cc(F)ccc3F)C2)c1 (stereo not shown) | -13.8% |
| CC(=O)OC1CCC(OC(C)=O)c2c1n([O-])c(C)c(C)[n+]2=O (stereo not shown) | 1.44% |
| Cc1nccn1-c1ccc(C=O)cc1 | 6.17% |
| CCCc1nc2c(s1)CCc1onc(-c3cccc([N+](=O)[O-])c3)c1-2 | 14.4% |
| CC1Cc2nc(SCC(=O)NCc3ccccc3)n(Cc3ccccc3)c(=O)c2S1 (stereo not shown) | -7.75% |
| CC(C)(c1ccccc1)c1ccc(OCCn2cnc3ccccc3c2=O)cc1.O=C(O)C(=O)O | 12.7% |
| Cc1ccc(N(Cc2cc3cccc(C)c3[nH]c2=O)S(=O)(=O)c2ccccc2)c(C)c1 | 3.05% |
| Cc1c(C(=O)O)cccc1[N+](=O)[O-] | 13.1% |
| CCCCSc1nc2[nH]ncc2c(=O)[nH]1 | 2.23% |
| CCOC(=O)NC1(C(F)(F)F)C(=O)NC(C)=C1C#N (stereo not shown) | -2.97% |
| CCSc1nc2ccccc2n1Cc1cccc([N+](=O)[O-])c1 | -11.3% |
| O=C(c1ccc(CN2CCOCC2)cc1)N1CCN(c2cccc(Cl)c2)CC1 | 6.91% |
| O=C(C1CCN(S(=O)(=O)c2cnc[nH]2)CC1)N(CCc1ccccc1)Cc1ccccc1 | 9.5% |
| CNCc1ccccc1Sc1ccc(OC)c(OC)c1.O=C(O)/C=C\C(=O)O | 6.96% |
| Cc1cccc(NC(=S)NC(=O)C(c2ccccc2)c2ccccc2)n1 | 8.13% |
| COc1ccc(-c2noc(-c3cccs3)n2)cc1OC | 15.7% |
| NNC(=O)Cn1c(-c2ccccc2)cc2ccccc21 | 16.1% |
| COC(=O)c1ccc(Nc2nnc(-c3ccc(C)c(S(=O)(=O)NCC4CCCO4)c3)c3ccccc23)cc1 (stereo not shown) | 8.24% |
| COC(=O)c1cccc(-n2nnnc2SCC(=O)Nc2cc(C)on2)c1 | 5.93% |
